Results reported in PubChem BioAssay AID485281 (National Center for Advancing Translational Sciences (NCATS), 2010).
About 260 (0.074%) of roughly 350,000 compounds were called active. The shares of active, inactive and inconclusive entries below differ from those in the screen. Calls come from the whole dose curve; as a rule, active = well fitted inhibition curve with a large enough effect; inconclusive = small, poorly fitted or top-dose-only effect; inactive = no such curve, though single readings can be large or run the other way. Where the call is inconclusive, the potency comes from a doubtful curve fit.

What follows are molecules tested against Ferritin light chain (Equus caballus) (UniProt P02791) (assay: qHTS Assay for Identification of Novel General Anesthetics). Conditions: apoferritin/1-aminoanthracene competitive binding, fluorescence; series mostly up to 77.5 µM.
Summary of the method: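 Horse-spleen apoferritin (10 uM) was mixed with 50% saturated 1-aminoanthracene in PBS, exposed to compounds for 10 min at room temperature, and read for fluorescence (ex 380 nm, em 535 nm). Competitive displacement was fitted with a four-parameter Hill equation.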
Note: nearly all actives have a fitted effect of over 20% in size.
Potency is the fitted concentration of half-maximal effect; tags give direction and shape of the fitted curve.

UniProt P02791, sequence (P02791 whole entry, looked up): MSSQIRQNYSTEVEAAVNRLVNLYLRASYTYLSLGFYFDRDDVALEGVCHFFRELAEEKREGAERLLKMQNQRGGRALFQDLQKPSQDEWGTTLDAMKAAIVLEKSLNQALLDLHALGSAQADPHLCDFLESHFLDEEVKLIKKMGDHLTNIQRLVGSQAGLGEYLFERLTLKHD

Structure (SMILES) | Potency
Cc1ccc2cc(/C=N/NC(=O)c3ccc(F)cc3)c(Cl)nc2c1 | inactive
COc1ccc(-n2cc(-c3ccc4c(c3)OCO4)n(CC(=O)Nc3cccc(C)c3C)c2=O)c(OC)c1 | inactive
O=C1CSC(c2cccc([N+](=O)[O-])c2)N1CCc1ccccc1 (stereo not given) | inconclusive: 22.4 µM [inhibitor, partial curve]
O=C(Oc1ccc2ccc(O)cc2c1)c1ccccc1Cl | inconclusive: 44.7 µM [inhibitor, partial curve]
O=S(=O)(Nc1ccc(F)c(Cl)c1)c1ccc(Br)s1 | inconclusive: 17.8 µM [inhibitor, partial curve]
Cc1cc(/C=N/n2c(COc3ccccc3)nc3ccccc3c2=O)c(O)c([N+](=O)[O-])c1 | inactive
O=c1c(S(=O)(=O)c2ccccc2)cn(Cc2ccc(F)cc2)c2cc(N3CCOCC3)c(F)cc12 | inconclusive: 3.55 µM [inhibitor, full curve, poor fit]
c1ccc2c(c1)Oc1cccc3cccc-2c13 | inactive
COc1ccc(CN2CCN(C(=O)c3cccc4ccccc34)CC2)cc1Br | inactive
Cc1ccc(NC(=O)c2[nH]cnc2C(=O)NN)cc1 | inconclusive: 31.6 µM [inhibitor, single point]
COC(=O)c1sccc1NC(=O)COc1ccc(C)cc1 | inconclusive: 12.6 µM [inhibitor, partial curve]
COc1ccc(N(C(=O)c2snc(C(N)=O)c2N)C(C(=O)NC2CCCCC2)c2ccc(C)o2)c(OC)c1 (stereo not given) | inconclusive: 11.2 µM [inhibitor, partial curve]
CCOc1ccc(NC(=O)c2sccc2-n2cccc2)cc1 | inconclusive: 39.8 µM [inhibitor, single point]
O=C(/C=C/Nc1cccc([N+](=O)[O-])c1)c1cccs1 | inconclusive: 12.6 µM [inhibitor, partial curve]
CCC(C)NC(=O)c1ccc2nc(CCc3ccccc3)oc2c1 (stereo not given) | inactive
CCOc1ccc(NC(=O)N2CCc3ccccc3C2)cc1 | inactive
Cn1c(=O)c2c(nc(NCCc3ccccc3)n2Cc2ccc(Cl)cc2)n(C)c1=O | inactive
CCOC(=O)C(=O)c1csc(NC(=O)CCSc2ccc(C)cc2)n1 | inconclusive: 25.1 µM [inhibitor, single point]
O=C(COC(=O)c1ccco1)NC1CCCCC1 | inconclusive: 22.4 µM [inhibitor, partial curve]
CCOc1ccccc1C(=O)OCC(=O)Nc1ccc(N2CCCCC2)cc1 | inconclusive: 28.2 µM [inhibitor, partial curve]
Cc1cc(=O)oc2cc(OCC(=O)OCC(=O)NCc3ccc4c(c3)OCO4)ccc12 | inconclusive: 14.1 µM [inhibitor, partial curve]
Cc1cc2cc(CNC(=S)Nc3ccc(OC(F)(F)F)cc3)ccc2n1C | inconclusive: 50.1 µM [inhibitor, single point]
COC(=O)c1ccc(C(=O)NC2CCCN(Cc3ccc(Cl)cc3)C2)nc1 (stereo not given) | inconclusive: 31.6 µM [inhibitor, single point]
COc1ccc(/C=C/C(=O)NC(=S)N2CCN(c3ccccc3OC)CC2)cc1 | inactive

Structure (SMILES) | Potency
NNC(=O)C1=NOC(CNc2ncc(C(F)(F)F)cc2Cl)C1 (stereo not given) | inconclusive: 39.8 µM [inhibitor, single point]
C[C@@H]1O[C@H](O[C@@H]2C(O)[C@H](O)[C@@H](CO)O[C@H]2Oc2cc(O)c3c(=O)cc(-c4ccc(O)cc4)oc3c2)[C@H](O)[C@H](O)[C@H]1O (stereo not given in full) | inactive
Cc1cc(/C=N/n2c(COc3ccccc3C)nc3ccccc3c2=O)c(O)c([N+](=O)[O-])c1 | inactive
CC(C)[C@@H]1CC[C@@H](C)C[C@H]1OC(=O)C[n+]1cc(-c2ccc(Cl)cc2)n2c1CCCCC2 | inactive
Cc1ccc(C(=O)Nc2ccc(C(=O)N3CCCCC3C)cc2)cc1 (stereo not given) | inconclusive: 28.2 µM [inhibitor, partial curve]
CCN1/C(=C/c2ccc3cc(C)ccc3[n+]2CC)Sc2ccccc21 | inconclusive: 31.6 µM [inhibitor, single point]
CC(C)(C)OC(=O)CNC(=O)c1[nH]cnc1C(=O)NCC(=O)OCc1ccccc1 | inconclusive: 39.8 µM [inhibitor, single point]
O=C(OCc1ccccc1)c1cccc(-c2nnc(-c3ccccc3)o2)c1 | inactive
O=C(Nc1ccc(C(=O)OCc2cc(=O)n3nc(C4CC4)sc3n2)cc1)c1cccc(F)c1 | inactive
O=C(c1ccccc1)N1CCCc2ccccc21 | inconclusive: 50.1 µM [inhibitor, single point]
O=c1[nH]c2ccccc2nc1Cc1ccccc1 | inconclusive: 39.8 µM [inhibitor, single point]
Nc1nc(-c2ccccc2)c(-c2ccccc2)s1 | inconclusive: 28.2 µM [inhibitor, partial curve]
CC(CC(=O)Nc1ccc(F)c([N+](=O)[O-])c1)c1ccccc1 (stereo not given) | inconclusive: 31.6 µM [inhibitor, single point]
Cc1c(Cl)cccc1NC(=O)CCC(=O)NNC(=O)c1ccccc1Cl | inconclusive: 39.8 µM [inhibitor, single point]
COc1ccc(NC(=O)c2cccc(N3C(=O)C4C5CCC(C5)C4C3=O)c2)cc1 (stereo not given) | inconclusive: 25.1 µM [inhibitor, partial curve]
CCOC(=O)c1cnc2ccc(C)cc2c1Nc1ccc(N(CC)CC)cc1 | inconclusive: 28.2 µM [inhibitor, partial curve]
Cc1ccc(C2CC(c3cccs3)=NN2C(=O)CSc2nc3ccccc3o2)cc1 (stereo not given) | inactive
COc1ccc(CN=C2NC(=O)CC(C(=O)Nc3cc(C)cc(C)c3)S2)cc1 (stereo not given) | inconclusive: 39.8 µM [inhibitor, single point]
CCOC(=O)c1c(N)sc(C)c1-c1ccccc1 | inconclusive: 28.2 µM [inhibitor, single point]
Cc1nc2nc(SCC(=O)NCc3ccccc3)nn2c(C)c1Cc1ccccc1 | inconclusive: 12.6 µM [inhibitor, partial curve]
Cc1ccc(NC(=O)c2ccc(Br)cc2)c(C(=O)c2ccccc2)c1 | inconclusive: 12.6 µM [inhibitor, partial curve]
CCOC(=O)c1c(C(C)(C)C)oc2ccc(O)cc12 | inconclusive: 22.4 µM [inhibitor, partial curve]
O=C(Nc1ccon1)c1cc2c(s1)CCCCCC2 | inactive
CC1(C)C2CC=C(/C=N/NC(=O)c3ccccc3O)C1C2 (stereo not given) | inconclusive: 31.6 µM [inhibitor, single point]

Structure (SMILES) | Potency
O=c1[nH]cnc2nn(-c3ccccc3)nc12 | inconclusive: 39.8 µM [inhibitor, single point]
CC1(C)CC(=O)c2c(Cc3ccccc3)n[nH]c2C1 | inconclusive: 28.2 µM [inhibitor, partial curve]
COc1ccc(/C=N\NC(=O)c2sccc2C)cc1Cn1nc(C)cc1C | inconclusive: 15.8 µM [inhibitor, partial curve]
CCOc1ccc2nc(N(CCN(C)C)C(=O)c3ccc4ccccc4c3)sc2c1 | inconclusive: 17.8 µM [inhibitor, partial curve]
CCOC(=O)C1=C(c2ccccc2)NC(=O)NC1c1ccc(O)c(Cl)c1 (stereo not given) | inconclusive: 31.6 µM [inhibitor, partial curve]
Cc1ccc(C)c(NC(=S)c2ccc3ccccc3n2)c1 | inactive
CN(C(=O)/C=C/c1ccccc1)C1CCS(=O)(=O)C1 (stereo not given) | inactive
COc1cc2c(cc1OC)N1C(=O)CC(OCC(=O)O)C3C4CC5(CCN5C(=O)C4=O)C2C31 (stereo not given) | inconclusive: 35.5 µM [inhibitor, partial curve]
CCC(=O)n1nc(-c2ccccc2)nc1SCC(=O)Nc1ccc(C)cc1 | inconclusive: 31.6 µM [inhibitor, single point]
Cc1ccc(N(C(=O)Cn2nnc3ccccc32)C(C(=O)NCc2ccco2)c2ccc(C)o2)cc1 (stereo not given) | inconclusive: 8.91 µM [inhibitor, partial curve]
c1ccc2nc(-c3ccc(N4CCOCC4)cc3)ccc2c1 | inactive
Cc1n[nH]c(=S)n1/N=C/c1ccc(OCc2ccc(Cl)cc2Cl)cc1 | inconclusive: 50.1 µM [inhibitor, single point]
Cn1nc(C(=O)Nc2ccc3c(c2)OCO3)c2ccccc2c1=O | inactive
Nc1cccc(Nc2ccccc2)c1 | inconclusive: 39.8 µM [inhibitor, partial curve]
O=C1C(Cl)=C(N2CCOCC2)C(=O)N1c1ccccc1 | inconclusive: 25.1 µM [inhibitor, partial curve]
O=C(Nc1nnc(SCc2ccc(F)cc2)s1)c1cccnc1Cl | inactive
Cc1ccc(NC(=O)CNCc2ccccc2)c(Br)c1 | inactive
CCN(CC)C(=O)C(=O)Nc1ccc(OCc2ccccc2)cc1 | inconclusive: 22.4 µM [inhibitor, partial curve]
CN(C)c1ccc(NC(=O)CSC2=Nc3ccccc3C3=NC(CC(=O)NCc4ccccc4)C(=O)N23)cc1 (stereo not given) | inconclusive: 0.794 µM [inhibitor, full curve, poor fit]
CCOc1ccc(-n2nnc3c(=O)n(CC(=O)Nc4cc(C)on4)cnc32)cc1 | inactive
COc1ccccc1C(OC(=O)c1cccs1)C(=O)NCc1ccco1 (stereo not given) | inconclusive: 14.1 µM [inhibitor, partial curve]
CC(C)c1nnc(NC(=O)c2nc(S(=O)(=O)Cc3ccccc3F)ncc2Cl)s1 | inactive
